T1: cynomolgus monkey EpoR (cynoEpoR) (cynomolgus monkey, UniProt A0A2K5WKK4 25-250)
T1 construct: Soluble protein (coated in ELISA, analyte in SPR)
T1 sequence: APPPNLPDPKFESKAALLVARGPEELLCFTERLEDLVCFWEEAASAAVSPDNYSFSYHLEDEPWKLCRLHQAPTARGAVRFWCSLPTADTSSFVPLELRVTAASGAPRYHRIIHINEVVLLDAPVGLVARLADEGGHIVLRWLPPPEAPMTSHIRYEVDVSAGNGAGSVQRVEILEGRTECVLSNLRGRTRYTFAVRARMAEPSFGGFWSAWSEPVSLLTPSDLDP

T2: huEpoR expressed on the cell surface (UT-7 cells) (human, UniProt P19235 25-508)
T2 sequence (looked up): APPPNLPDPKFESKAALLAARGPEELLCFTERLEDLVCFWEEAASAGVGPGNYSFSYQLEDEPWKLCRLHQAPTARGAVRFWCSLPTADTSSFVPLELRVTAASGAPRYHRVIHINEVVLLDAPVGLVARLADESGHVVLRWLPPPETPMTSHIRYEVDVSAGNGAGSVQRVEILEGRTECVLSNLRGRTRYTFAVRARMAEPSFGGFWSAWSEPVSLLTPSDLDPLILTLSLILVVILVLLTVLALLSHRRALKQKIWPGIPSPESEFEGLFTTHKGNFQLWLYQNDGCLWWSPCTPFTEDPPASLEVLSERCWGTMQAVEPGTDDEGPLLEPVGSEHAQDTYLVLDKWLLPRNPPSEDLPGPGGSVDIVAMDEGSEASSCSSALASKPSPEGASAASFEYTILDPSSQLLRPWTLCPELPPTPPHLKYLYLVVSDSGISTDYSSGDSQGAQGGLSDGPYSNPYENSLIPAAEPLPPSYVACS

T3: huEpoR protein (soluble human erythropoietin receptor) (human, UniProt P19235 25-250, limits assumed)
T3 construct: also called soluble huEpoR; biotinylated huEpoR
T3 sequence (looked up): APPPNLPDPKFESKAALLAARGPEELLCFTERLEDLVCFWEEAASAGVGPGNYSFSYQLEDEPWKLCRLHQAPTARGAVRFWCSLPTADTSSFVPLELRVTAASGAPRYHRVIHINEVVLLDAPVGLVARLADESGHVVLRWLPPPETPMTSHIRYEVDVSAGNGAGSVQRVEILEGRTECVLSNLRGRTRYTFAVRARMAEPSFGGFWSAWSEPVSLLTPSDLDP

T4: biotinylated mouse EpoR-Fc protein (muEpoR-Fc) (mouse, UniProt P14753 25-249, limits assumed, biotinylated)
T4 construct: also called mouse EpoR (muEpoR); not shown: Fc part
T4 sequence (looked up): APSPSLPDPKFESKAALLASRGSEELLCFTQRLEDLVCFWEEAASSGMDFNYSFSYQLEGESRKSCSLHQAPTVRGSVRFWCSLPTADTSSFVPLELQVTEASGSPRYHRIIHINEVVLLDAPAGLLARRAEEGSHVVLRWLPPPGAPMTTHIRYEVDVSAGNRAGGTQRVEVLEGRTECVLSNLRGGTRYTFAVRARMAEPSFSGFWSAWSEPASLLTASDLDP

T5: mouse EpoR (muEpoR) (mouse, UniProt P14753 25-249, limits assumed)
T5 sequence (looked up): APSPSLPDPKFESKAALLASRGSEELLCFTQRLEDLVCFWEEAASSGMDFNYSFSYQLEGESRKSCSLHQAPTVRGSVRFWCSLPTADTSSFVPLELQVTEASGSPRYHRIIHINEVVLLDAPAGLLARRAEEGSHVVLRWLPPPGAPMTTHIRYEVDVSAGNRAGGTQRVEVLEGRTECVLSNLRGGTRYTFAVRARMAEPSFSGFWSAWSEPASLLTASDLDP


Columns and labels:
[1] = target: T1, cynomolgus monkey EpoR (cynoEpoR); test: SPR, Biacore T100; scFv-Fc captured on anti-human IgG Fc CM5 chip, EpoR as analyte; 1:1 fit;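 also: measured at 25 °C in HBS-EP buffer with 0.1 mg/ml BSA, flowed at 50 µl/min, 1 min association then dissociation (10 min human, 5 min cyno EpoR)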
[2] = target: T2, huEpoR expressed on the cell surface …; test: cell-based or functional assay
[3] = target: T3, huEpoR protein (soluble human …); test: SPR, BIAcore 3000; scFv-Fc captured on anti-human Fc CM4 chip, huEpoR as analyte
[4] = target: T4, biotinylated mouse EpoR-Fc protein …; test: ELISA, antibody coated at 1 µg/ml, biotinylated muEpoR-Fc at 5 µg/ml, streptavidin-HRP
[5] = target: T3, huEpoR protein (soluble human …); test: SPR, Biacore T100; scFv-Fc captured on anti-human IgG Fc CM5 chip, EpoR as analyte; 1:1 fit;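 also: measured at 25 °C in HBS-EP buffer with 0.1 mg/ml BSA, flowed at 50 µl/min, 1 min association then dissociation (10 min human, 5 min cyno EpoR)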
[6] = target: T5, mouse EpoR (muEpoR); test: ELISA on coated muEpoR, scFv-Fc at 5 µg/ml (Example 17)

| Binder | Kd [1] | koff [1] | kon [1] | Average EC50 (nM), UT-7-luciferase (STAT5 reporter) assay [2] | Ratio (EC50 of Epo / EC50 of the scFv-Fc), UT-7-luciferase assay [2] | Kd [3] | koff [3] | kon [3] | binding result [4] | Kd [5] | koff [5] | kon [5] | binding result [6] |
| --- | --- | --- | --- | --- | --- | --- | --- | --- | --- | --- | --- | --- | --- |
| Mxb 10 (clone 10 scFv-Fc protein) (Fc fusion, scFv-Fc (maxibody): VH, linker, VL, human IgG1 Fc) [letters of about 100 residues left out]DRVAVAGKGSYYFDSWGRGTTVTVSSGGGGSGGGGSGGGGSAQSVLTQPPSVSEAPGQRVTIACSGSSSNIGNNAVSWYQQLPGKAPTLLIYYDNLLPSGVSDRFSGSKSGTSASLAISGLQSEDEADYYCAAWDDSLNDWVFGGGTKVTVLGAAA[letters of human IgG1 Fc left out] | 6.83 nM | 0.00107 s⁻¹ | 156000 M⁻¹ s⁻¹ | – | – | – | – | – | binds | – | – | – | – |
| Mxb 5 (clone 5 scFv-Fc protein) (Fc fusion, scFv-Fc (maxibody): VH, linker, VL, human IgG1 Fc) EVQLVESGGGLVQPGGSLRLSCAASGFTFSSYWMSWVRQAPGKGLEWVANIKPDGSEKYYVDSVKGRFTISRDNAKNSVYLQMNSLRAEDTAVYYCARVSRGGSYSDWGQGTLVTVSSGGGGSGGGGSGGGGSAQSALTQPASVSGSPGQSITISCTGTSSDVGGYIYVSWYQQHPGKAPKLMIYDVSRRPSGISDRFSGSKSGNTASLTISGLQAEDEADYYCNSYTTLSTWLFGGGTKVTVLGAAA[letters of human IgG1 Fc left out] | 140 nM | 0.0611 s⁻¹ | 437000 M⁻¹ s⁻¹ | 0.791 nM | 0.012 | 217 nM | 0.0612 s⁻¹ | 280000 M⁻¹ s⁻¹ | binds | – | – | – | – |
| Mxb 29 (clone 29 scFv-Fc protein) (Fc fusion, Tested as scFv-Fc (maxibody) with an Fc derived from human IgG1) VH: [letters of about 100 residues left out]GGHMTTVTRDAFDIWGQGTMVTVSA VL: SSELTQDPAVSVALGQTIRITCQGDSLRYYYATWYQQKPGQAPILVIYGQNNRPSGVPDRFSGSSSGNTASLTITGAQAEDEADYYCGTWDSSVSASWVFGGGTKVTVL | 265 nM | 0.0504 s⁻¹ | 190000 M⁻¹ s⁻¹ | 1.52 nM | 0.006 | – | – | – | – | 487 nM | 0.0629 s⁻¹ | 129000 M⁻¹ s⁻¹ | no binding (tested: 5 µg/ml) |

Now from value to binder:

| Kd [1] | koff [1] | kon [1] | Average EC50 (nM), UT-7-luciferase (STAT5 reporter) assay [2] | Ratio (EC50 of Epo / EC50 of the scFv-Fc), UT-7-luciferase assay [2] | Kd [3] | koff [3] | kon [3] | binding result [4] | Kd [5] | koff [5] | kon [5] | binding result [6] | Binder |
| --- | --- | --- | --- | --- | --- | --- | --- | --- | --- | --- | --- | --- | --- |
| 2310 nM | 0.485 s⁻¹ | 211000 M⁻¹ s⁻¹ | 0.67 nM | 0.014 | 14900 nM | 0.274 s⁻¹ | 18000 M⁻¹ s⁻¹ | – | – | – | – | – | Mxb 30 (clone 30 scFv-Fc protein) (Fc fusion, scFv-Fc (maxibody) with human IgG1 Fc) QVQLQESGPGLVKPSQTLSLTCAISGDSVSSNSAAWNWIRQSPSRGLEWLGRTYYRSKWYNDYAVSVKSRMTIKADTSKNQFSLQLNSVTPEDTAVYYCARDEGPLDYWGQGTLVTVSAGGGGSGGGGSGGGGSGAPQAVLTQPSSVSGAPGQRVTISCTGSSSNLGTGYDVHWYQQLPGTAPKLLIYGNSNRPSGVPDRFSGSKSDTSGLLAITGLQAEDEATYYCQSYDFSLSAMVFGGGTKVTVLAAA[letters of human IgG1 Fc left out] |
| – | – | – | 0.604 nM | 0.016 | 334 nM | 0.136 s⁻¹ | 410000 M⁻¹ s⁻¹ | binds | – | – | – | – | Mxb 2 (clone 2 scFv-Fc protein) (Fc fusion, scFv-Fc (maxibody): VH, linker, VL, human IgG1 Fc) EVQLVQSGGGLVQPGGSLRLSCAASGFTFSSYWMSWVRQAPGKGLEWVANIKPDGSEKYYVDSVKGRFTISRDNAKNSVYLQMNSLRAEDTAVYYCARVSRGGSYSDWGQGTLVTVSSGGGGSGGGGSGGGGSAQSVLTQPPSASGSPGQSVTISCTGTSSDVGGYNYVSWYQQHPGKAPKLMIYEVSKRPSGVPDRFSGSKSGNTASLTVSGLQPEDEADYYCSSYAGRNWVFGGGTQLTVLGAAA[letters of human IgG1 Fc left out] |
| – | – | – | 0.468 nM | 0.02 | 271 nM | 0.0541 s⁻¹ | 200000 M⁻¹ s⁻¹ | binds | – | – | – | – | Mxb 7 (clone 7 scFv-Fc protein) (Fc fusion, scFv-Fc (maxibody): VH, linker, VL, human IgG1 Fc) EVQLVQSGGGLVQPGGSLRLSCAASGFTFSSYWMSWVRQAPGKGLEWVANIKPDGSEKYYVDSVKGRFTISRDNAKNSVYLQMNSLRAEDTAVYYCARVSRGGSYSDWGKGTLVTVSSGGGGSGGGGSGGGGSAQSALTQPASVSGSPGQSIIISCTGTRSDIGGYNYVSWYQHHPGRAPKLIIFDVNNRPSGVSHRFSGSKSGNTASLTISGLQAEDEADYYCNSFTDSRTWLFGGGTKLTVLGAAA[letters of human IgG1 Fc left out] |

From patent US20080102065A1 (published 2008)
